By IC50 is meant the dose at which the fit gives 50% viability; where the fit passes the top or lowest dose, that dose stands as a limit. AUC is the area under the same curve over the 256-fold range up to the top dose, as a fraction; it is 1 without any effect and falls as sensitivity rises. The top dose, if marked as inferred, was calculated from the reported fits.
compound: O=C1NC(=NCc2cccs2)S/C1=C\c1ccc2ncccc2c1 [RO-3306]; assay: Viability of human cancer cell lines after 72 h of drug (GDSC screen); conditions: top dose 5 µM; top dose inferred
Protocol: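 Human cancer cell lines in 384-well plates, medium with 10% serum, drug for 72 h over a 256-fold dose range (nine 2-fold or five 4-fold steps up to the top dose). Adherent lines were fixed and stained with the nucleic acid dye Syto60, suspension lines read with resazurin; signal relative to control wells, capped at 0 and 100%. One two-parameter sigmoid per drug and line, fitted in a mixed model over all curves with the slope shared within a line.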

In order of falling AUC:
1. SU-DHL-4 (B-cell lymphoma, suspension)  0.997
2. SU-DHL-10 (B-cell lymphoma, suspension)  0.997
3. SU-DHL-16 (B-cell lymphoma, suspension)  0.996
4. SBC-5 (small cell lung carcinoma, adherent)  0.993
5. SK-MEL-1 (melanoma, suspension)  0.993
6. SU-DHL-5 (B-cell lymphoma, suspension)  0.993
7. Raji (Burkitt lymphoma, suspension)  0.99
8. SW620 (large intestine, adherent)  0.99
9. SBC-1 (small cell lung carcinoma, suspension)  0.989
10. ST486 (Burkitt lymphoma, suspension)  0.988
11. SU-DHL-8 (B-cell lymphoma, suspension)  0.988
12. SCH (stomach, adherent)  0.987
13. SK-MEL-28 (melanoma, adherent)  0.987
14. SK-MM-2 (myeloma, suspension)  0.987
15. RT4 (bladder, adherent)  0.986
16. SK-HEP-1 (liver, adherent)  0.986
17. SLVL (B-cell lymphoma, suspension)  0.986
18. SUP-B15 (lymphoblastic leukaemia, suspension)  0.986
19. SJRH30 (rhabdomyosarcoma, adherent)  0.985
20. SW13 (adrenal gland, adherent)  0.985
21. SW982 (soft tissue, adherent)  0.985
22. RPMI-8402 (T-cell lymphoblastic leukaemia, suspension)  0.984
23. Ramos-2G6-4C10 (Burkitt lymphoma, suspension)  0.984
24. SAS (head and neck, adherent)  0.984
25. SISO (cervix, adherent)  0.984
26. SK-MEL-30 (melanoma, adherent)  0.984
27. SK-PN-DW (Ewing sarcoma, adherent)  0.984
28. STS-0421 (soft tissue, adherent)  0.983
29. SUIT-2 (pancreas, adherent)  0.983
30. SW684 (fibrosarcoma, adherent)  0.983
31. SK-N-AS (neuroblastoma, adherent)  0.982
32. SUP-HD1 (Hodgkin lymphoma, suspension)  0.982
33. SW626 (ovary, adherent)  0.982
34. SW1417 (large intestine, adherent)  0.982
35. SK-MEL-3 (melanoma, adherent)  0.981
36. SU8686 (pancreas, adherent)  0.981
37. SNU-C2B (large intestine, adherent)  0.98
38. SNU-449 (liver, adherent)  0.979
39. SUP-T1 (T-cell lymphoblastic leukaemia, suspension)  0.979
40. SK-MEL-5 (melanoma, adherent)  0.978
41. SK-ES-1 (Ewing sarcoma, semi-adherent)  0.977
42. SK-LMS-1 (soft tissue, adherent)  0.977
43. SNU-C1 (large intestine, suspension)  0.977
44. SNG-M (endometrium, adherent)  0.976
45. SW48 (large intestine, adherent)  0.976
46. SW1783 (glioma, adherent)  0.976
47. RVH-421 (melanoma, adherent)  0.975
48. SIMA (neuroblastoma, adherent)  0.975
49. SNU-C5 (large intestine, adherent)  0.975
50. SCC-9 (head and neck, adherent)  0.974
51. SW780 (bladder, adherent)  0.974
52. RS4-11 (leukaemia, suspension)  0.973
53. SNB75 (glioma, adherent)  0.973
54. SNU-61 (large intestine, adherent)  0.973
55. SW948 (large intestine, adherent)  0.973
56. SCC-15 (head and neck, adherent)  0.972
57. RPMI-8866 (chronic myeloid leukaemia, suspension)  0.97
58. SK-OV-3 (ovary, adherent)  0.97
59. SK-MEL-31 (melanoma, adherent)  0.969
60. SW1271 (small cell lung carcinoma, adherent)  0.969
61. SW962 (urogenital system, adherent)  0.967
62. SCC-25 (head and neck, adherent)  0.964
63. SK-UT-1 (soft tissue, adherent)  0.96
64. SH-4 (melanoma, adherent)  0.955
65. SW900 (lung squamous cell carcinoma, adherent)  0.954
66. SF295 (glioma, adherent)  0.949
67. SJSA-1 (bone, adherent)  0.948
68. SNU-423 (liver, adherent)  0.948
69. SNU-81 (large intestine, adherent)  0.947
70. SR (lymphoid neoplasm, suspension)  0.945
71. SCC90 (head and neck, adherent)  0.943
72. SNU-387 (liver, adherent)  0.942
73. SUP-M2 (anaplastic large cell lymphoma, suspension)  0.942
74. SW1573 (lung adenocarcinoma, adherent)  0.939
75. RXF393 (kidney, adherent)  0.937
76. SUP-B8 (B-cell leukaemia, suspension)  0.937
77. SK-MES-1 (lung squamous cell carcinoma, adherent)  0.933
78. SKM-1 (haematopoietic neoplasm, suspension)  0.929
79. SKN (uterus, adherent)  0.929
80. SHP-77 (small cell lung carcinoma, semi-adherent)  0.927
81. SK-GT-2 (stomach, adherent)  0.926
82. SK-GT-4 (oesophagus, adherent)  0.923
83. SK-MEL-2 (melanoma, adherent)  0.923
84. SK-CO-1 (large intestine, adherent)  0.922
85. SKN-3 (head and neck, adherent)  0.921
86. SK-MG-1 (glioma, adherent)  0.917
87. SBC-3 (small cell lung carcinoma, adherent)  0.916
88. SNU-407 (large intestine, adherent)  0.914
89. SK-LU-1 (lung adenocarcinoma, adherent)  0.913
90. SK-N-FI (neuroblastoma, adherent)  0.908
91. SW954 (urogenital system, adherent)  0.9
92. SF539 (glioma, adherent)  0.899
93. SNU-182 (liver, adherent)  0.893
94. SW756 (cervix, adherent)  0.891
95. SK-N-SH (neuroblastoma, adherent)  0.888
96. SF268 (glioma, adherent)  0.879
97. SKG-IIIa (cervix, adherent)  0.869
98. SU-DHL-6 (B-cell lymphoma, suspension)  0.868
99. SAT (head and neck, adherent)  0.855
100. SW1710 (bladder, adherent)  0.721
101. SF126 (glioma, adherent)  0.705

“RPMI-8402 (T-cell lymphoblastic leukaemia, suspension)” and “RPMI-8866 (chronic myeloid leukaemia, suspension)” cannot be ordered by IC50: over 5 µM for the first, over 5 µM for the second.

RS4-11 (leukaemia, suspension) and RT4 (bladder, adherent) cannot be ordered by IC50: over 5 µM for the first, over 5 µM for the second.

RVH-421 (melanoma, adherent) and RXF393 (kidney, adherent) cannot be ordered by IC50: over 5 µM for the first, over 5 µM for the second.

Raji (Burkitt lymphoma, suspension) and “Ramos-2G6-4C10 (Burkitt lymphoma, suspension)” cannot be ordered by IC50: over 5 µM for the first, over 5 µM for the second.

SAS (head and neck, adherent) and SAT (head and neck, adherent) cannot be ordered by IC50: over 5 µM for the first, over 5 µM for the second.

“SBC-1 (small cell lung carcinoma, suspension)” and “SBC-3 (small cell lung carcinoma, adherent)” cannot be ordered by IC50: over 5 µM for the first, over 5 µM for the second.

“SBC-5 (small cell lung carcinoma, adherent)” and SCC90 (head and neck, adherent) cannot be ordered by IC50: over 5 µM for the first, over 5 µM for the second.

SCC-9 (head and neck, adherent) and SCC-15 (head and neck, adherent) cannot be ordered by IC50: over 5 µM for the first, over 5 µM for the second.

SCC-25 (head and neck, adherent) and SCH (stomach, adherent) cannot be ordered by IC50: over 5 µM for the first, over 5 µM for the second.

Going from SF126 (glioma, adherent) to SF268 (glioma, adherent), the IC50 rises from 1.23 µM to over 5 µM.

SF295 (glioma, adherent) and SF539 (glioma, adherent) cannot be ordered by IC50: over 5 µM for the first, over 5 µM for the second.

SH-4 (melanoma, adherent) and “SHP-77 (small cell lung carcinoma, semi-adherent)” cannot be ordered by IC50: over 5 µM for the first, over 5 µM for the second.

SIMA (neuroblastoma, adherent) and SISO (cervix, adherent) cannot be ordered by IC50: over 5 µM for the first, over 5 µM for the second.

SJRH30 (rhabdomyosarcoma, adherent) and SJSA-1 (bone, adherent) cannot be ordered by IC50: over 5 µM for the first, over 5 µM for the second.

SK-CO-1 (large intestine, adherent) and SK-ES-1 (Ewing sarcoma, semi-adherent) cannot be ordered by IC50: over 5 µM for the first, over 5 µM for the second.

SK-GT-2 (stomach, adherent) and SK-GT-4 (oesophagus, adherent) cannot be ordered by IC50: over 5 µM for the first, over 5 µM for the second.

SK-HEP-1 (liver, adherent) and SK-LMS-1 (soft tissue, adherent) cannot be ordered by IC50: over 5 µM for the first, over 5 µM for the second.

SK-LU-1 (lung adenocarcinoma, adherent) and SK-MEL-1 (melanoma, suspension) cannot be ordered by IC50: over 5 µM for the first, over 5 µM for the second.

SK-MEL-2 (melanoma, adherent) and SK-MEL-3 (melanoma, adherent) cannot be ordered by IC50: over 5 µM for the first, over 5 µM for the second.

SK-MEL-5 (melanoma, adherent) and SK-MEL-28 (melanoma, adherent) cannot be ordered by IC50: over 5 µM for the first, over 5 µM for the second.

SK-MEL-30 (melanoma, adherent) and SK-MEL-31 (melanoma, adherent) cannot be ordered by IC50: over 5 µM for the first, over 5 µM for the second.

“SK-MES-1 (lung squamous cell carcinoma, adherent)” and SK-MG-1 (glioma, adherent) cannot be ordered by IC50: over 5 µM for the first, over 5 µM for the second.

SK-MM-2 (myeloma, suspension) and SK-N-AS (neuroblastoma, adherent) cannot be ordered by IC50: over 5 µM for the first, over 5 µM for the second.

SK-N-FI (neuroblastoma, adherent) and SK-N-SH (neuroblastoma, adherent) cannot be ordered by IC50: over 5 µM for the first, over 5 µM for the second.

SK-OV-3 (ovary, adherent) and SK-PN-DW (Ewing sarcoma, adherent) cannot be ordered by IC50: over 5 µM for the first, over 5 µM for the second.

SK-UT-1 (soft tissue, adherent) and SKG-IIIa (cervix, adherent) cannot be ordered by IC50: over 5 µM for the first, over 5 µM for the second.

“SKM-1 (haematopoietic neoplasm, suspension)” and SKN (uterus, adherent) cannot be ordered by IC50: over 5 µM for the first, over 5 µM for the second.

SKN-3 (head and neck, adherent) and SLVL (B-cell lymphoma, suspension) cannot be ordered by IC50: over 5 µM for the first, over 5 µM for the second.

SNB75 (glioma, adherent) and SNG-M (endometrium, adherent) cannot be ordered by IC50: over 5 µM for the first, over 5 µM for the second.

SNU-61 (large intestine, adherent) and SNU-81 (large intestine, adherent) cannot be ordered by IC50: over 5 µM for the first, over 5 µM for the second.

SNU-182 (liver, adherent) and SNU-387 (liver, adherent) cannot be ordered by IC50: over 5 µM for the first, over 5 µM for the second.

SNU-407 (large intestine, adherent) and SNU-423 (liver, adherent) cannot be ordered by IC50: over 5 µM for the first, over 5 µM for the second.

SNU-449 (liver, adherent) and SNU-C1 (large intestine, suspension) cannot be ordered by IC50: over 5 µM for the first, over 5 µM for the second.

SNU-C2B (large intestine, adherent) and SNU-C5 (large intestine, adherent) cannot be ordered by IC50: over 5 µM for the first, over 5 µM for the second.

SR (lymphoid neoplasm, suspension) and ST486 (Burkitt lymphoma, suspension) cannot be ordered by IC50: over 5 µM for the first, over 5 µM for the second.

STS-0421 (soft tissue, adherent) and SU8686 (pancreas, adherent) cannot be ordered by IC50: over 5 µM for the first, over 5 µM for the second.

SU-DHL-4 (B-cell lymphoma, suspension) and SU-DHL-5 (B-cell lymphoma, suspension) cannot be ordered by IC50: over 5 µM for the first, over 5 µM for the second.

Going from SU-DHL-6 (B-cell lymphoma, suspension) to SU-DHL-8 (B-cell lymphoma, suspension), the IC50 rises from 2.71 µM to over 5 µM.

SU-DHL-10 (B-cell lymphoma, suspension) and SU-DHL-16 (B-cell lymphoma, suspension) cannot be ordered by IC50: over 5 µM for the first, over 5 µM for the second.

SUIT-2 (pancreas, adherent) and SUP-B8 (B-cell leukaemia, suspension) cannot be ordered by IC50: over 5 µM for the first, over 5 µM for the second.

“SUP-B15 (lymphoblastic leukaemia, suspension)” and SUP-HD1 (Hodgkin lymphoma, suspension) cannot be ordered by IC50: over 5 µM for the first, over 5 µM for the second.

“SUP-M2 (anaplastic large cell lymphoma, suspension)” and “SUP-T1 (T-cell lymphoblastic leukaemia, suspension)” cannot be ordered by IC50: over 5 µM for the first, over 5 µM for the second.

SW13 (adrenal gland, adherent) and SW48 (large intestine, adherent) cannot be ordered by IC50: over 5 µM for the first, over 5 µM for the second.

SW620 (large intestine, adherent) and SW626 (ovary, adherent) cannot be ordered by IC50: over 5 µM for the first, over 5 µM for the second.

SW684 (fibrosarcoma, adherent) and SW756 (cervix, adherent) cannot be ordered by IC50: over 5 µM for the first, over 5 µM for the second.

SW780 (bladder, adherent) and “SW900 (lung squamous cell carcinoma, adherent)” cannot be ordered by IC50: over 5 µM for the first, over 5 µM for the second.

SW948 (large intestine, adherent) and SW954 (urogenital system, adherent) cannot be ordered by IC50: over 5 µM for the first, over 5 µM for the second.

SW962 (urogenital system, adherent) and SW982 (soft tissue, adherent) cannot be ordered by IC50: over 5 µM for the first, over 5 µM for the second.

“SW1271 (small cell lung carcinoma, adherent)” and SW1417 (large intestine, adherent) cannot be ordered by IC50: over 5 µM for the first, over 5 µM for the second.

Going from SW1573 (lung adenocarcinoma, adherent) to SW1710 (bladder, adherent), the IC50 falls from over 5 µM to 1.35 µM.

Cell Line SW1783 (glioma, adherent) has an IC50 of over 5 µM.

Source: the supplement of paper PMC4967469
